# Some of the results follow.
# B1: HHA (Hippeastrum hybrid) (protein)
# chain: MQQDCNLVLYDVDKPIWASNTGGLARDCHLNMQSDGNLVVYAPRNQVIWASNTQGENGNYVCILQKDRNVVIYGTARWATGTNIHGAGIVGVPGSAPQNTTAEMIKLVRKYLITK
# Tests used:
# Experiment in all cases: glycan array binding signal (z-score within array); higher = stronger binding
# Conditions in all cases: glycan notation: IUPAC condensed, linker removed
# [1] = biological target: Fuc(a1-2)[GalNAc(a1-3)]Gal(b1-3)GlcNAc(b1-3)GalNAc
# Summary of the method: (§1)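 Glycan array data came from 3228 arrays in the Consortium for Functional Glycomics database, and only arrays with an available protein sequence were kept. Glycan names were put into IUPAC-condensed notation, and columns mapping to the same glycan were averaged. The binding signal is a within-array Z-score, averaged across arrays of one protein sequence run at different concentrations or buffers and across linkers. A negative Z-score can be read as non-binding.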
# [2] = biological target: Fuc(a1-2)[GalNAc(a1-3)]Gal(b1-3)GlcNAc(b1-6)GalNAc
# Summary of the method: as §1
# [3] = biological target: Fuc(a1-2)[GalNAc(a1-3)]Gal(b1-4)Glc
# Summary of the method: as §1
# [4] = biological target: Fuc(a1-2)[GalNAc(a1-3)]Gal(b1-4)GlcNAc
# Summary of the method: as §1
# [5] = biological target: Fuc(a1-2)[GalNAc(a1-3)]Gal(b1-4)GlcNAc(b1-2)Man
# Summary of the method: as §1
# [6] = biological target: Fuc(a1-2)[GalNAc(a1-3)]Gal(b1-4)GlcNAc(b1-2)Man(a1-3)[Fuc(a1-2)[GalNAc(a1-3)]Gal(b1-4)GlcNAc(b1-2)Man(a1-6)]Man(b1-4)GlcNAc(b1-4)GlcNAc
# Summary of the method: as §1
# [7] = biological target: Fuc(a1-2)[GalNAc(a1-3)]Gal(b1-4)GlcNAc(b1-2)Man(a1-3)[Fuc(a1-2)[GalNAc(a1-3)]Gal(b1-4)GlcNAc(b1-2)Man(a1-6)]Man(b1-4)GlcNAc(b1-4)[Fuc(a1-6)]GlcNAc
# Summary of the method: as §1
# [8] = biological target: Fuc(a1-2)[GalNAc(a1-3)]Gal(b1-4)GlcNAc(b1-3)Gal(b1-4)GlcNAc
# Summary of the method: as §1
# [9] = biological target: Fuc(a1-2)[GalNAc(a1-3)]Gal(b1-4)GlcNAc(b1-3)Gal(b1-4)GlcNAc(b1-3)Gal(b1-4)GlcNAc
# Summary of the method: as §1
# [10] = biological target: Fuc(a1-2)[GalNAc(a1-3)]Gal(b1-4)GlcNAc(b1-3)GalNAc
# Summary of the method: as §1
# [11] = biological target: Fuc(a1-2)[GalNAc(a1-3)]Gal(b1-4)GlcNAc(b1-3)[Fuc(a1-2)[GalNAc(a1-3)]Gal(b1-4)GlcNAc(b1-6)]GalNAc
# Summary of the method: as §1
# [12] = biological target: Fuc(a1-2)[GalNAc(a1-3)]Gal(b1-4)GlcNAc(b1-6)GalNAc
# Summary of the method: as §1
# [13] = biological target: Fuc(a1-2)[GalNAc(a1-3)]Gal(b1-4)[Fuc(a1-3)]GlcNAc
# Summary of the method: as §1
# [14] = biological target: Fuc(a1-2)[GalNAc(a1-3)]Gal(b1-4)[Fuc(a1-3)]GlcNAc(b1-3)GalNAc
# Summary of the method: as §1
# [15] = biological target: Fuc(a1-2)[GalNAc(a1-4)]Gal(b1-4)GlcNAc
# Summary of the method: as §1
# [16] = biological target: Fuc(a1-2)[GalNAc(b1-3)]Gal
# Summary of the method: as §1
# Fuc(a1-3)GlcNAc = biological target: Fuc(a1-3)GlcNAc
# Summary of the method: as §1
# [17] = biological target: Fuc(a1-3)[Gal(b1-4)]Glc6S
# Summary of the method: as §1
# [18] = biological target: Fuc(a1-3)[Gal(b1-4)]GlcNAc
# Summary of the method: as §1
# [19] = biological target: Fuc(a1-3)[Gal(b1-4)]GlcNAc(b1-2)Man
# Summary of the method: as §1
# [20] = biological target: Fuc(a1-3)[Gal(b1-4)]GlcNAc(b1-2)Man(a1-3)[Fuc(a1-3)[Gal(b1-4)]GlcNAc(b1-2)Man(a1-6)]Man(b1-4)GlcNAc(b1-4)GlcNAc
# Summary of the method: as §1
# [21] = biological target: Fuc(a1-3)[Gal(b1-4)]GlcNAc(b1-2)Man(a1-3)[Fuc(a1-3)[Gal(b1-4)]GlcNAc(b1-2)Man(a1-6)]Man(b1-4)GlcNAc(b1-4)[Fuc(a1-6)]GlcNAc
# Summary of the method: as §1
# [22] = biological target: Fuc(a1-3)[Gal(b1-4)]GlcNAc(b1-3)Gal(b1-3)[Fuc(a1-4)]GlcNAc
# Summary of the method: as §1
# [23] = biological target: Fuc(a1-3)[Gal(b1-4)]GlcNAc(b1-3)Gal(b1-4)[Fuc(a1-3)]GlcNAc
# Summary of the method: as §1
# [24] = biological target: Fuc(a1-3)[Gal(b1-4)]GlcNAc(b1-3)Gal(b1-4)[Fuc(a1-3)]GlcNAc(b1-3)Gal(b1-4)[Fuc(a1-3)]GlcNAc
# Summary of the method: as §1
# [25] = biological target: Fuc(a1-3)[Gal(b1-4)]GlcNAc(b1-3)GalNAc
# Summary of the method: as §1
# [26] = biological target: Fuc(a1-3)[Gal(b1-4)]GlcNAc(b1-4)Gal(b1-4)[Fuc(a1-3)]GlcNAc
# Summary of the method: as §1
# [27] = biological target: Fuc(a1-3)[Gal(b1-4)]GlcNAc(b1-4)Gal(b1-4)[Fuc(a1-3)]GlcNAc(b1-4)Gal(b1-4)[Fuc(a1-3)]GlcNAc
# Summary of the method: as §1
# [28] = biological target: Fuc(a1-3)[Gal(b1-4)]GlcNAc(b1-6)GalNAc
# Summary of the method: as §1
# [29] = biological target: Fuc(a1-3)[Gal(b1-4)]GlcNAc(b1-6)[Gal(b1-3)GlcNAc(b1-3)]Gal(b1-4)Glc
# Summary of the method: as §1
# [30] = biological target: Fuc(a1-3)[Gal(b1-4)]GlcNAc6S
# Summary of the method: as §1
# [31] = biological target: Fuc(a1-3)[Gal3S(b1-4)]Glc
# Summary of the method: as §1
# [32] = biological target: Fuc(a1-3)[Gal3S(b1-4)]GlcNAc
# Summary of the method: as §1
# [33] = biological target: Fuc(a1-3)[Gal3S(b1-4)]GlcNAc6S
# Summary of the method: as §1
# [34] = biological target: Fuc(a1-3)[GalNAc(b1-4)]GlcNAc
# Summary of the method: as §1
# [35] = biological target: Fuc(a1-3)[GalNAc(b1-4)]GlcNAc6S
# Summary of the method: as §1
# Fuc(a1-4)GlcNAc = biological target: Fuc(a1-4)GlcNAc
# Summary of the method: as §1
# Fuc(b1-3)GlcNAc = biological target: Fuc(b1-3)GlcNAc
# Summary of the method: as §1
# Gal(a1-2)Gal = biological target: Gal(a1-2)Gal
# Summary of the method: as §1
# Gal(a1-3)Gal = biological target: Gal(a1-3)Gal
# Summary of the method: as §1
# Gal(a1-3)Gal(b1-3)GlcNAc = biological target: Gal(a1-3)Gal(b1-3)GlcNAc
# Summary of the method: as §1
# [36] = biological target: Gal(a1-3)Gal(b1-3)GlcNAc(b1-2)Man
# Summary of the method: as §1
# [37] = biological target: Gal(a1-3)Gal(b1-3)GlcNAc(b1-2)Man(a1-3)[Gal(a1-3)Gal(b1-3)GlcNAc(b1-2)Man(a1-6)]Man(b1-4)GlcNAc(b1-4)GlcNAc
# Summary of the method: as §1
# [38] = biological target: Gal(a1-3)Gal(b1-3)GlcNAc(b1-3)GalNAc
# Summary of the method: as §1
# [39] = biological target: Gal(a1-3)Gal(b1-3)GlcNAc(b1-6)GalNAc
# Summary of the method: as §1
binder,measurement,setting,value
B1,glycan array binding signal (z-score),[1],-0.196
same,glycan array binding signal (z-score),[2],-0.217
same,glycan array binding signal (z-score),[3],-0.217
same,glycan array binding signal (z-score),[4],-0.216
same,glycan array binding signal (z-score),[5],-0.212
same,glycan array binding signal (z-score),[6],-0.159
same,glycan array binding signal (z-score),[7],0.441
same,glycan array binding signal (z-score),[8],-0.202
same,glycan array binding signal (z-score),[9],-0.145
same,glycan array binding signal (z-score),[10],-0.172
same,glycan array binding signal (z-score),[11],-0.22
same,glycan array binding signal (z-score),[12],-0.21
same,glycan array binding signal (z-score),[13],-0.188
same,glycan array binding signal (z-score),[14],-0.135
same,glycan array binding signal (z-score),[15],-0.208
same,glycan array binding signal (z-score),[16],-0.215
same,glycan array binding signal (z-score),Fuc(a1-3)GlcNAc,-0.222
same,glycan array binding signal (z-score),[17],-0.199
same,glycan array binding signal (z-score),[18],-0.218
same,glycan array binding signal (z-score),[19],-0.203
same,glycan array binding signal (z-score),[20],-0.207
same,glycan array binding signal (z-score),[21],-0.189
same,glycan array binding signal (z-score),[22],-0.203
same,glycan array binding signal (z-score),[23],-0.194
same,glycan array binding signal (z-score),[24],-0.203
same,glycan array binding signal (z-score),[25],-0.17
same,glycan array binding signal (z-score),[26],-0.264
same,glycan array binding signal (z-score),[27],-0.255
same,glycan array binding signal (z-score),[28],-0.204
same,glycan array binding signal (z-score),[29],-0.201
same,glycan array binding signal (z-score),[30],-0.196
same,glycan array binding signal (z-score),[31],-0.208
same,glycan array binding signal (z-score),[32],-0.22
same,glycan array binding signal (z-score),[33],-0.208
same,glycan array binding signal (z-score),[34],-0.196
same,glycan array binding signal (z-score),[35],-0.214
same,glycan array binding signal (z-score),Fuc(a1-4)GlcNAc,-0.214
same,glycan array binding signal (z-score),Fuc(b1-3)GlcNAc,-0.214
same,glycan array binding signal (z-score),Gal(a1-2)Gal,-0.209
same,glycan array binding signal (z-score),Gal(a1-3)Gal,-0.194
same,glycan array binding signal (z-score),Gal(a1-3)Gal(b1-3)GlcNAc,-0.203
same,glycan array binding signal (z-score),[36],-0.209
same,glycan array binding signal (z-score),[37],-0.16
same,glycan array binding signal (z-score),[38],-0.104
same,glycan array binding signal (z-score),[39],-0.203

# From the supplement of paper PMC8728848
